According to the supplement of paper PMC3334620:
In all, about 33,000 sequences were measured (“E-score (-0.5 to 0.5)”: median about -0.056, highest 2% from about 0.38 on). Some of the results follow.

molecular target: Stb4 (UniProt P50104); test: PBM E-score (8-mer binding enrichment) (E-score (-0.5 to 0.5)); higher = stronger / more preferred TF binding; most listed sequences are background and not binding sites; settings: protein concentration: 200 nM; construct: GST-DNA-binding domain
Summary of the method: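 Using PURExpress in vitro transcription/translation, GST-tagged yeast transcription factors were made in full-length or DNA-binding-domain form. These were applied at about 100-200 nM to double-stranded universal all-10-mer Agilent arrays, and bound protein was detected with fluorescent anti-GST. Scans were normalised with masliner before the Universal PBM Analysis Suite assigned E-scores to ungapped eight-base words pooled with their reverse complements.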

| Sequence | PBM E-score |
| --- | --- |
| AAGACAAT | -0.0577 |
| ACAGTTCC | 0.294 |
| CGCGGCCG | 0.136 |
| GTGCTTCA | -0.0371 |
| ACTTGGGG | -0.0254 |
| GCAACTGC | -0.036 |
| CCAGAGAA | -0.132 |
| AATGCCCA | -0.139 |
| ATCTCGGC | 0.442 |
| GCCCATTA | -0.168 |
| ACAATAAG | -0.121 |
| CAAAAAAC | -0.0375 |
| GACAAACC | 0.0235 |
| TACAGAGA | -0.134 |
| CGTTCCAG | -0.0906 |
| AAGTAGAG | -0.21 |
| GGGCTGAC | 0.0244 |
| ACGGGTAC | 0.28 |
| CTATTACC | 0.143 |
| CCAGTGGC | -0.211 |
| TAAAATGA | 0.0974 |
| AAGGTCGG | 0.251 |
| CCCACTAA | -0.101 |
| ACACATCT | -0.0649 |
| AATAAGTG | -0.224 |

| Sequence | PBM E-score |
| --- | --- |
| AGCTTCTA | -0.0169 |
| AGAAATGA | -0.126 |
| TACCAGAA | -0.0535 |
| ATGACCCC | 0.00736 |
| CGTTCGAC | -0.218 |
| ACCGACTC | 0.2 |
| CGGGTGTA | 0.334 |
| TACAGCGA | -0.212 |
| GCTTTCCC | 0.0481 |
| CTTGTACC | -0.00495 |
| AAGGTTAC | 0.0187 |
| AAATGGCT | -0.0926 |
| ATTCAATG | -0.0412 |
| ACTACTAC | 0.0543 |
| ATCGTCTC | -0.00579 |
| TGCATGCA | -0.292 |
| AGCTCGTA | -0.189 |
| CAGAGTCC | -0.108 |
| GAATCCTC | -0.00312 |
| CCCAGCTC | -0.0394 |
| CGTGGCAC | -0.178 |
| ACGTACAA | -0.0237 |
| CTTTAGGC | -0.188 |
| CCCTAGCC | -0.0141 |
| GCCCGGCA | 0.192 |

| Sequence | PBM E-score |
| --- | --- |
| CTCAACGA | -0.106 |
| ATGACGCA | -0.183 |
| ATGGGAGG | -0.0739 |
| CCTCGTAG | -0.251 |
| GTACTTGA | -0.079 |
| CGCGGCAA | 0.303 |
| ATTTCATA | -0.0793 |
| ACTACATG | -0.106 |
| GTCAGGCA | -0.118 |
| ATCTACGG | 0.149 |
| CGGATACG | 0.409 |
| ACAAAGAG | -0.197 |
| CAGTCGGC | 0.228 |
| CCAGCCAA | -0.108 |
| AGCTCACT | -0.248 |
| CGTTGCTA | -0.181 |
| AGTTCGTG | -0.157 |
| AGCTATCG | -0.078 |
| CTTAACGA | -0.026 |
| CGTGTTGA | -0.0328 |
| AGCGGCTA | 0.186 |
| ATTGCGCC | -0.0115 |
| AGACATAG | -0.0369 |
| TCAATGAA | -0.132 |
| AGGTTAGC | -0.0813 |

| Sequence | PBM E-score |
| --- | --- |
| AGAACACA | -0.255 |
| CGAACATA | 0.0507 |
| CTATGTGA | -0.161 |
| GGATCCCA | 0.102 |
| TAGACCAA | -0.144 |
| GCACCTAC | -0.0284 |
| CAGTCAAG | -0.249 |
| CAGTGATG | -0.372 |
| AAAAAATC | 0.0808 |
| ACTTGGAC | 0.039 |
| GGGGGGAC | -0.211 |
| CCGCTGAG | -0.064 |
| ACCTGCCG | 0.221 |
| ACCTTCTC | -0.0577 |
| TGCGTAAA | -0.191 |
| ATGTCCAA | -0.0387 |
| TATGCTCA | 0.00047 |
| GCTGTGAA | -0.169 |
| CCTTGCAA | -0.252 |
| ACAGGTTA | -0.221 |
| CCCAACCA | -0.0358 |
| ACGGGAGA | 0.12 |
| ATTCAAAC | 0.015 |
| AGTAGTCG | -0.0431 |
| AGGAGTAC | -0.133 |

| Sequence | PBM E-score |
| --- | --- |
| CACCATTC | -0.147 |
| ACCAATGA | -0.264 |
| AATTTTAT | 0.159 |
| ATAGTTGG | -0.056 |
| AGTCCGAA | 0.332 |
| AATAAGAG | 0.154 |
| CCCAAGGG | -0.204 |
| GTGACGAA | -0.0785 |
| ACCGGGAC | 0.241 |
| GATAATAA | 0.107 |
| CGGAAGTA | 0.419 |
| CGGGCATC | 0.0417 |
| GATATTGC | 0.0272 |
| CCCCACCG | 0.126 |
| GCCGAAGC | 0.385 |
| AGGTGCCG | 0.346 |
| CAGTAAGC | 0.00856 |
| CGCTAAAC | 0.0319 |
| ATGCCCAG | 0.0828 |
| CCGTAGAG | 0.0108 |
| GTTCACCA | -0.0785 |
| AATTCATC | 0.0251 |
| AGCCCCAG | -0.0794 |
| AATGAGCA | -0.0677 |
| GAAAACCC | 0.0948 |

| Sequence | PBM E-score |
| --- | --- |
| CGTTCTTC | 0.036 |
| GCGAAGAC | 0.022 |
| ATACGTCA | 0.00039 |
| AGCGGTCG | 0.0108 |
| ACCTCCCA | -0.306 |
| ATGTTCTA | -0.0115 |
| AAACTTGC | -0.00659 |
| CCTTATTA | -0.0382 |
| AAGGCATT | -0.0889 |
| ACCCACTC | -0.0452 |
| CCCCAGAG | -0.188 |
| AATTGACT | -0.0473 |
| CAGGACTC | -0.113 |
| AAAGGTGT | 0.11 |
| CACGTACC | -0.0431 |
| ACCAGCCA | -0.0271 |
| ATCGGCCA | 0.0548 |
| GACGACGC | -0.199 |
| CGTGTCAC | 0.0483 |
| GGCTGCTA | -0.093 |
| GACCAATA | -0.12 |
| AGTGCCAT | -0.0804 |
| CCGCCCTC | 0.239 |
| GCACTAGC | 0.0133 |
| CCGTCGGA | 0.397 |

| Sequence | PBM E-score |
| --- | --- |
| CAAGTTTC | -0.0496 |
| ACCATGCT | -0.0747 |
| CTAGCTGC | -0.171 |
| GACTGACC | -0.17 |
| ACCCACAA | 0.0175 |
| AGAGCAGC | -0.148 |
| CAACTCGG | 0.334 |
| TCCATTCA | -0.0703 |
| ACTAGCAG | -0.298 |
| CTGTAGTC | -0.0677 |
| AGCTCTAC | -0.192 |
| GAATTCCC | 0.215 |
| CCTTGCCA | -0.161 |
| ATACTAAG | -0.115 |
| ATGCTGCC | -0.00862 |
| CCGAGAAA | 0.451 |
| GAAGCGCA | 0.082 |
| GCCTCTAC | -0.144 |
| GGTAATAC | 0.222 |
| ATAAGTTA | -0.0932 |
| AGGGTCAA | -0.0503 |
| CCAGCAGC | -0.212 |
